Measurements taken from the supplement of paper PMC4604168 (melanoma cell lines).
This is one part of the list. Repeats are few or missing, and single values can be far off.

Each compound was assayed on RVH-421 (assay: cell count relative to DMSO control; melanoma cells; higher = more viable cells). Conditions: library dose: low library concentration; 72 h.
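Also: cell number obtained by counting DAPI-stained nuclei in high-throughput microscope images with image analysis software, screen run in 1,536-well plates.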

**Q.** For `CC1(C)CCC(c2ccc(Cl)cc2)=C(CN2CCN(c3ccc(C(=O)NS(=O)(=O)c4ccc(N[C@H](CCN5CCOCC5)CSc5ccccc5)c(S(=O)(=O)C(F)(F)F)c4)cc3)CC2)C1` + C[C@]1(c2nc3c(C(N)=O)cccc3[nH]2)CCCN1 [Veliparib] (first compound 0.4 µM, partner dose 1.4 µM), which cell count is on record?
**A.** Its cell count is 55%.

**Q.** With `Cc1ccc(Nc2nccc(N(C)c3ccc4c(C)n(C)nc4c3)n2)cc1S(N)(=O)=O` [Pazopanib] + CC(=O)c1c(C)c2cnc(Nc3ccc(N4CCNCC4)cn3)nc2n(C2CCCC2)c1=O [palbociclib] (first compound 0.4 µM, partner dose 0.04 µM) as the compound, how does the cell count read?
**A.** Its cell count is 87.7%.

**Q.** With `O=C(/C=C/c1cccnc1)NCCCCC1CCN(C(=O)c2ccccc2)CC1` + CC(=O)O[C@@]12CO[C@@H]1C[C@H](O)[C@@]1(C)C(=O)[C@H](O)C3=C(C)[C@@H](OC(=O)[C@H](O)[C@@H](NC(=O)OC(C)(C)C)c4ccccc4)C[C@@](O)([C@@H](OC(=O)c4ccccc4)[C@H]21)C3(C)C [Docetaxel] (first compound 0.01 µM, partner dose 0.0001 µM) as the compound, how does the cell count read?
**A.** Its cell count is 48.8%.

**Q.** `O=C(/C=C/c1cccnc1)NCCCCC1CCN(C(=O)c2ccccc2)CC1` + COc1ccc(C2=N[C@@H](c3ccc(Cl)cc3)[C@@H](c3ccc(Cl)cc3)N2C(=O)N2CCNC(=O)C2)c(OC(C)C)c1 [Nutlin-3] (first compound 0.01 µM, partner dose 0.1 µM) was tested. Which cell count did it give?
**A.** Its cell count is 65%.

**Q.** `O=C(/C=C/c1cccnc1)NCCCCC1CCN(C(=O)c2ccccc2)CC1` + COc1ccc(Cl)c(Nc2nc3ccccc3nc2NS(=O)(=O)c2cccc(NC(=O)C(C)(C)N)c2)c1 [XL147] (first compound 0.01 µM, partner dose 0.8 µM) was tested. Which cell count did it give?
**A.** The cell count was 53.2%.

**Q.** `O=C(/C=C/c1cccnc1)NCCCCC1CCN(C(=O)c2ccccc2)CC1` + CCN(CC)CCCCNc1ncc2cc(-c3cc(OC)cc(OC)c3)c(NC(=O)NC(C)(C)C)nc2n1 [PD173074] (first compound 0.01 µM, partner dose 0.1 µM) was tested. Which cell count did it give?
**A.** The cell count was 44.4%.

**Q.** Which cell count does the source give for `O=C(/C=C/c1cccnc1)NCCCCC1CCN(C(=O)c2ccccc2)CC1` + C[C@]1(O)C[C@@H](c2nc(-c3ccc4ccc(-c5ccccc5)nc4c3)c3c(N)nccn32)C1 [OSI906] (first compound 0.01 µM, partner dose 0.4 µM) here?
**A.** The cell count was 76.7%.

**Q.** How did the cell count turn out when `Cc1ccc(Nc2nccc(N(C)c3ccc4c(C)n(C)nc4c3)n2)cc1S(N)(=O)=O` [Pazopanib] + CS(=O)(=O)CCNCc1ccc(-c2ccc3ncnc(Nc4ccc(OCc5cccc(F)c5)c(Cl)c4)c3c2)o1 [lapatinib] (first compound 0.4 µM, partner dose 0.8 µM) was run?
**A.** The cell count was 99.3%.

**Q.** Which cell count does the source give for `CC1(C)CCC(c2ccc(Cl)cc2)=C(CN2CCN(c3ccc(C(=O)NS(=O)(=O)c4ccc(N[C@H](CCN5CCOCC5)CSc5ccccc5)c(S(=O)(=O)C(F)(F)F)c4)cc3)CC2)C1` + O=C(Nc1cccc(Cl)c1)Nc1ncc(CCNc2ncnc3ccsc23)s1 [SNS314] (first compound 0.4 µM, partner dose 0.0008 µM) here?
**A.** Its cell count is 74.2%.

**Q.** Which cell count does the source give for `O=C(/C=C/c1cccnc1)NCCCCC1CCN(C(=O)c2ccccc2)CC1` + CO[C@H]1C[C@@H]2CC[C@@H](C)[C@@](O)(O2)C(=O)C(=O)N2CCCC[C@H]2C(=O)O[C@H]([C@H](C)C[C@@H]2CC[C@@H](OCCO)[C@H](OC)C2)CC(=O)[C@H](C)/C=C(\C)[C@@H](O)[C@@H](OC)C(=O)[C@H](C)C[C@H](C)/C=C/C=C/C=C/1C [everolimus] (first compound 0.01 µM, partner dose 0.02 µM) here?
**A.** Its cell count is 67.6%.

**Q.** How did the cell count turn out when `CC1(C)CCC(c2ccc(Cl)cc2)=C(CN2CCN(c3ccc(C(=O)NS(=O)(=O)c4ccc(N[C@H](CCN5CCOCC5)CSc5ccccc5)c(S(=O)(=O)C(F)(F)F)c4)cc3)CC2)C1` + CO[C@H]1C[C@@H]2CC[C@@H](C)[C@@](O)(O2)C(=O)C(=O)N2CCCC[C@H]2C(=O)O[C@H]([C@H](C)C[C@@H]2CC[C@@H](OCCO)[C@H](OC)C2)CC(=O)[C@H](C)/C=C(\C)[C@@H](O)[C@@H](OC)C(=O)[C@H](C)C[C@H](C)/C=C/C=C/C=C/1C [everolimus] (first compound 0.4 µM, partner dose 0.02 µM) was run?
**A.** Its cell count is 47.3%.
